Laboratory results published in article PMC6919601, “Identification of Plasmodium dipeptidyl aminopeptidase allosteric inhibitors by high throughput screening” (PLoS ONE, 2019).
The whole screen tested about 110,000 compounds, of which about 230 (0.21%) showed an effect of 50% or more. Some of the results follow.

The molecules below were run against DPAP1 (Plasmodium falciparum, UniProt Q8IIJ9) (assay: primary screen, percent inhibition; read by cleavage of a fluorogenic dipeptide substrate; higher = more effect of the substance).
Parameters: species or system P. falciparum D10 trophozoite lysates; single well
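Note: 30 min substrate incubation versus DMSO and 10 µM JCP410 controls.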

Chain of DPAP1 (Q8IIJ9 whole entry, looked up): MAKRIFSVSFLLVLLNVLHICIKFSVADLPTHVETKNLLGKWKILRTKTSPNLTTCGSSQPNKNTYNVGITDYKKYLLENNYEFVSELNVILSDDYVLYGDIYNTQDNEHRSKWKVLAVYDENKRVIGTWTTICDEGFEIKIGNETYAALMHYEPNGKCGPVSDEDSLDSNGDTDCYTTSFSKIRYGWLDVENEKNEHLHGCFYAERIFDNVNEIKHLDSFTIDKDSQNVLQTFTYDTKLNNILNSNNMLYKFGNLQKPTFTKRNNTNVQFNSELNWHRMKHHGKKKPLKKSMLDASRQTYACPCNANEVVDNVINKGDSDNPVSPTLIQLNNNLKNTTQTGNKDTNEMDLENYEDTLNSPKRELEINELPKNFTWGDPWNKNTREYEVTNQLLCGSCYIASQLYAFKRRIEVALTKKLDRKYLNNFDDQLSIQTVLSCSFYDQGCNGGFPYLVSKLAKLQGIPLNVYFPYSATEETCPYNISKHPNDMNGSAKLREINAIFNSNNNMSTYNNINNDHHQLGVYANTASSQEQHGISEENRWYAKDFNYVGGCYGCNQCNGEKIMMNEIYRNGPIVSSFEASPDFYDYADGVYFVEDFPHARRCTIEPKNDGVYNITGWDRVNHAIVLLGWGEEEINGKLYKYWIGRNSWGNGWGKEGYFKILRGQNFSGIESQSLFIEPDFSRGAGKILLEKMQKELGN

SMILES | % Inhibition @ 10 uM [%]
CCCCOc1ccc(C2=N/C(=C/c3cccs3)C(=O)O2)cc1 | 0.997
COc1ccc(OC)c(CN2CCN(Cc3ccc(C(F)(F)F)cc3)CC2)c1 | -2.84
CCc1cc2c(cc3c(=O)n(CC(=O)NCc4cccnc4)nc(CC)n32)s1 | 1.68
COc1ccc(CC(C)NC(C)c2cccc3ccccc23)cc1OC (stereo not drawn) | -5.65
COc1cc(C2C3=C(O)CC(C)(C)CC3=NC3=C2C(=O)CC(C)(C)C3)cc(Cl)c1OCC(=O)O (stereo not drawn) | 1.82
Cc1c(O)cc2n(c1=O)-c1ccccc1C2(C)C | 0.658
COc1cc(OC)cc(C(=O)O/N=C(\N)c2cccc(C)c2)c1 | 0.275
CCOc1ccccc1N1CCN(C(=O)CC(C)C)CC1 | -3.12
NC(=O)NC(c1ccccc1)c1cccc(Cl)c1 (stereo not drawn) | -5.59
C=C(C)CC1(NCc2ccccc2)CCCCC1 | -4.4
N/C(=N\OCc1ccc(Cl)cc1Cl)c1nonc1N | -1.84
CCOc1ccc(C2C(C#N)=C(N)Oc3[nH]nc(-c4ccc(F)cc4)c32)cc1OCC (stereo not drawn) | -2.56
CC1=C(c2ccc(F)cc2)S(=O)(=O)N=C1NC1CCCCC1C (stereo not drawn) | -7.46
COc1ccccc1NC(=O)C1=C(C)N=C2CC(C)(C)CC(O)=C2C1c1ccc(F)cc1 (stereo not drawn) | 4.7
CC[C@@H](C)[C@H](NC(=O)c1cccc2ccccc12)C(=O)N[C@@H](CCc1ccccc1)C(=O)CO | -3.97
O=C(O)[C@]1(c2ccccc2)CC[C@H](Nc2ccccc2)C1 | -2.44
CN(Cc1ccc(Cl)cc1Cl)CC(O)c1ccccc1 (stereo not drawn) | -6.62
COc1ccc(NS(=O)(=O)c2ccc(C)cc2)c(NC(C)=O)c1 | -5.49
COc1ccccc1CN1CC(C(=O)NCCc2ccc(Cl)cc2)CC1=O (stereo not drawn) | 2.18
CC1(C)CC(=O)C2=C(C1)OC(N)=C(C#N)C2c1cccc(Oc2ccccc2)c1 (stereo not drawn) | -4.67
CC1=C(c2ccc(C)cc2)S(=O)(=O)N=C1NCCN1CCOCC1 | 0.623

SMILES | % Inhibition @ 10 uM [%]
CN(C)c1ccc(C2OCC3(CO2)SC(=O)NC3=O)cc1 (stereo not drawn) | 0.751
CCCc1nnc2n1Nc1nc3ccccc3nc1S2 | -3.64
CCCc1ncc(C(O)c2ccccc2OC)n1C (stereo not drawn) | 4.67
O=c1oc2c3c(ccc2c2ccccc12)OCN(Cc1ccc2c(c1)OCO2)C3 | -2.57
Cc1cc(=O)n2nc(N(C)CC(=O)NCCC3=CCCCC3)sc2n1 | -0.281
CCOC(=O)c1c(C)c(-c2ccccc2)n(CC(=O)NCCCN(CC)CC)c1C | -1.66
O=C(O)c1cccc(S(=O)(=O)N2CCc3ccccc3C2)c1 | 1.37
COc1cccc(OC)c1-c1ccc(C(=O)N[C@@H](CC(C)C)C(=O)NCC#N)cc1Cl | -6.98
COc1ccc(Cc2nnc(C(=O)NCCCO)o2)cc1OC | 3
CCOC(=O)C1CCCN(Cc2ccc(-c3ccccc3)cc2)C1 (stereo not drawn) | 4.73
Cc1cccc(Oc2nc3c(C)cccn3c(=O)c2/C=C(\C#N)C(=O)NC2CCCCC2)c1C | -3.23
COC(=O)c1c(O)cn(-c2ccc(C)c(C)c2)c1C | -0.436
Cc1ccc(Nc2nc(OC(C(F)(F)F)C(F)(F)F)nc(N3CCOCC3)n2)cc1 | 0.00178
COCCCNC(=O)C1c2ccccc2C(=O)N(C)C1c1cn(C)c2ccccc12 (stereo not drawn) | -0.668
CC(C)CC(C(=O)NCC#N)c1cccc(-c2csc(N3CC(C)NC(C)C3)n2)c1 (stereo not drawn) | 3.19
CCc1cc2c(NCC3CCCO3)nc(C)nc2s1 (stereo not drawn) | -4.43
CC(CN1CCN(Cc2ccccc2)CC1)OC(=O)c1ccco1 (stereo not drawn) | -7.46
Cc1nc(SCC(=O)NC2CCCC2)nc(O)c1Cc1ccccc1 | -0.45
COc1cccc(OCC(=O)N(Cc2nc(-c3cccc(C)c3)no2)C(C)C)c1 | -0.646
COc1ccc(S(=O)(=O)N2CCC(CN3C(=O)c4cccc5cccc(c45)C3=O)CC2)cc1 | 4.75
CC(C)NC(=O)c1cnn2c(C(F)(F)F)cc(-c3cccs3)nc12 | 3.76

SMILES | % Inhibition @ 10 uM [%]
c1ccc(-c2nnc3sc(-c4cnccn4)nn23)cc1 | 0.0539
CCOc1ccc2nc(SCC(=O)NCc3ccc4c(c3)OCO4)sc2c1 | -4.28
O=C(C(Cc1ccccc1)NS(=O)(=O)c1cccs1)N1CCCCCC1 (stereo not drawn) | -6.5
O=C(O)COC(c1ccccc1)C(F)(F)F (stereo not drawn) | -7.55
CC1(C)OCCN1C(=O)C(=O)c1c[nH]c2ccccc12 | -2.68
CC1=C(C(=O)OC2CCCCC2)C(c2cccc(Cl)c2Cl)C2=C(O)CC(C)(C)CC2=N1 (stereo not drawn) | 2.78
Cc1ccc(C(=O)N/C(=C\c2ccco2)C(=O)Nc2ccccc2)cc1C | -4.49
Cc1ccc(-c2cc(C(=O)NC3CC3)c3ccccc3n2)o1 | 3.36
Cc1c(CN2CCC(N3CCCCC3)CC2)c(=O)n(-c2ccccc2)n1C | 3.15
Nc1no[n+]([O-])c1C(=O)NCC(CC(=O)O)c1ccccc1 (stereo not drawn) | 6.17
COc1ccc(NC(=O)c2cc3ccccc3oc2=O)cc1 | -2.28
COc1ccc(C2=NCCn3cccc32)cc1 | 3.16
CCc1ccc(-c2cc3c(=O)n(CC(=O)NCc4cccc(Cl)c4)nc(C)n3n2)cc1 | 3.87
COc1ccc(C(=O)O/N=C(\N)c2ccc(Br)cc2)c(OC)c1 | -1.17
COc1ccccc1-c1nnc2n(Cc3ccc(C)cc3)c(=O)c3ccccc3n12 | -1.72
C=CCNC(=O)COc1ccc(-c2ccc(C#N)cc2)cc1 | -4.66
COc1cccc(C2c3c(oc4ccccc4c3=O)C(=O)N2Cc2ccccc2)c1 (stereo not drawn) | -0.519
CCc1nc2ccccc2c(NC(=O)CNC(C)Cc2ccccc2)c1C (stereo not drawn) | -1.42
CCCNc1ncnc2c1cnn2-c1ccccc1 | 32.9
Cc1nn(CC(=O)N2CCC3(CC2)OCCO3)c(=O)c2nn(-c3ccccc3)c(C)c12 | -1.57
CCCN(CCC)C(=O)Cn1c(=O)n(CCOC)c(=O)c2sc3ccccc3c21 | -1.21
